Values marked as one replicate rest on one cluster of the flow cell; about a third of the high ones do not repeat.
Tested on: ATP
Experiment: switch fluorescence ratio, 500 uM ATP over buffer (Cy3 cluster intensity, sum of 5 cycles each) (fold (ratio)); higher = stronger signal-on switching upon ATP binding; sequences stand for … in TCGTCGGCAGCGTCAGATGTGTATAAGAGACAGTTTTTTTTTTTTTTTTTTTTTTTTT…TC
Details: aptamer strand: ATP DNA aptamer (quencher-CACCTGGGGGAGTATTGCGGAGGAAGG + anchor), 100 nM annealed; ATP concentration: 500 uM; one replicate
In short: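 Cy3-labelled switching-strand clusters on a modified Illumina MiSeq flow-cell were annealed to 100 nM quencher-labelled ATP aptamer and imaged first in selection buffer, then after 15 min with 500 uM ATP at 22 °C. NaOH stripping and re-annealing separated each of five buffer/ATP cycles, and clusters outside 100-1000 RFU were excluded. The fluorescence ratio sums target-cycle Cy3 intensity over buffer-cycle Cy3 intensity per cluster and averages it per switch-domain sequence.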
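Note: ATP exposure 15 min at 22 °C before imaging.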

| Sequence | switch fluorescence ratio |
| --- | --- |
| ATGATCATGT | 1.01 |
| ATGTGACTAT | 0.998 |
| CTGCTAGTTA | 0.997 |
| TTTATGGTGC | 0.994 |
| TGACCTATCA | 1.02 |
| ATTCCATCCG | 1.42 |
| CAGTTCCCAT | 1.04 |
| ATATGTTTTG | 0.989 |
| GATAGTCGTA | 1.09 |
| TATTAAATGA | 0.955 |
| CATAAACTAA | 1.03 |
| CACATAAGCA | 1.01 |
| ATATGCTGCG | 1.02 |
| GTTGGATAGC | 0.998 |
| CTAGGAGGAG | 0.981 |
| AAACACTCAT | 1.06 |
| ACGAGATTGG | 1.02 |
| CGATAGAAAA | 0.973 |
| GTGACAGAGT | 0.952 |
| CTCTTTCTGA | 0.934 |
| GGATCGACCA | 0.984 |
| CTAACGACCT | 1.42 |
| GATTAACACC | 1.11 |

| Sequence | switch fluorescence ratio |
| --- | --- |
| ATCGCACGGG | 1.14 |
| CCCGTAACTC | 2.54 |
| CGACGTTTG | 1.03 |
| GTCTCAGCAC | 1.26 |
| TGTAAGGCG | 0.98 |
| TTCGGGCGC | 0.995 |
| TCGATATAGA | 0.939 |
| TAGTCAAGTG | 0.991 |
| ACCCAATGAG | 1.06 |
| AGTGCGACGG | 1.03 |
| CATGGCTTCT | 0.976 |
| GATTAGCCAG | 0.993 |
| GCGCCCAATT | 1.16 |
| CCTCCTTAAG | 1.91 |
| CATAGAAAAG | 0.96 |
| GGTGATTCTC | 0.998 |
| TCAGAGGTG | 1.06 |
| TGTGATGGCG | 1.02 |
| TGGCTAAAGT | 1.03 |
| ACCGAAAGTG | 0.99 |
| CGGACGTGAT | 2.75 |
| TATTGGTCTT | 1 |
| TATGAGACAT | 1.05 |

| Sequence | switch fluorescence ratio |
| --- | --- |
| TCAGAGCGTG | 0.969 |
| TGAGAGACT | 0.984 |
| GTTGGATTGT | 0.986 |
| ACTTGATCGG | 0.992 |
| TCGAGGATGA | 0.954 |
| TAGCCCGGTA | 0.998 |
| TTCTAGGCGT | 0.986 |
| TTAATTTCCA | 1.08 |
| CCCATGCTCC | 1.68 |
| TTCACGGTAG | 1.01 |
| AGCGTGGATC | 1.12 |
| GCGAGCTTGA | 0.984 |
| TCAATACCGC | 1.14 |
| AGTTCCATCA | 0.992 |
| AGGACCAACA | 1.07 |
| TTCTCGAATA | 1.01 |
| CCCCCAATAT | 1.21 |
| CAAATTCCGC | 1.23 |
| GGTTGGCGAG | 0.986 |
| ACAATTCTGA | 0.979 |
| ACTCGTCAAT | 3.13 |
| TGCTGCTATG | 1 |
| GTACCCCGGA | 0.979 |

| Sequence | switch fluorescence ratio |
| --- | --- |
| ACCAACTCTA | 1.17 |
| CAGCGATGTA | 0.964 |
| GTGATAAGGG | 1.04 |
| AAGTCATTGG | 0.977 |
| TGGGGACTGC | 1.05 |
| CGTGGCTTCA | 1.02 |
| GAAGTATTTA | 1.05 |
| GATCGGGACG | 1.05 |
| CGAGTTACGC | 0.948 |
| TACGAAACAT | 1.19 |
| CAGCTAGGAT | 0.993 |
| GATTAGACGG | 0.979 |
| AGTACACCAG | 1.07 |
| CTTTGCGTAT | 1 |
| CTAGCGCTGA | 1.03 |
| TTGACGACGA | 1.25 |
| CTGGTACCGG | 1.03 |
| CGACTTCGAT | 1.04 |
| GACAACACGA | 1.55 |
| GTGAAAGAGA | 1.03 |
| CTCGTAGGAG | 0.988 |
| ATATAATGGG | 0.977 |
| TTCACGGACA | 1.45 |

| Sequence | switch fluorescence ratio |
| --- | --- |
| ACACAGCGAA | 1.19 |
| GCAGTTAAAA | 0.976 |
| GGGTTGAAAT | 1.06 |
| ATAACAATGT | 0.982 |
| GTAATGGGAT | 0.979 |
| ATGGTTTCCC | 1.02 |
| CGCTTCAGAT | 0.977 |
| TTACTAGGGA | 1.03 |
| ATCAGATAAC | 0.947 |
| ATTGTGCGCT | 1.04 |
| GCGCTTAACA | 1.03 |
| CAAATTTTGT | 1.01 |
| TAGAGCCGCA | 1.01 |
| TCTAAGATAG | 1.03 |
| CACTGTCATG | 1.09 |
| GACAGACTTT | 1.1 |
| GCACGAGGTG | 1.13 |
| GGGAACAGAT | 1.03 |
| CGTGTATACA | 1.01 |
| GGCCGCAC | 2.9 |
| AACGGGGACG | 1.03 |
| GCGGAAAAGG | 0.982 |
| AATGCCAAAG | 0.992 |

| Sequence | switch fluorescence ratio |
| --- | --- |
| ATTGGGCTGA | 1.01 |
| GTTCGAAGCA | 1.2 |
| TACGACATCT | 1.06 |
| TCTGTTAGT | 1.03 |
| CACCAATGCT | 1.52 |
| TGTAGGGCCT | 1.03 |
| GATTGGCTGA | 0.992 |
| TTATTGTA | 0.99 |
| GATCAAGAAA | 1.09 |
| TTGCGCGGA | 0.996 |
| TAGCAAGAGC | 1.13 |
| TCCTACACA | 1.45 |
| ATTGAGACTT | 1.04 |
| TCCGTGGCCT | 1.04 |
| TTTCCGTGGG | 0.991 |
| GGTATCAGCA | 1.01 |
| TTTGACGCTC | 1.02 |
| CAGAATCGG | 0.959 |
| TATATAGGG | 1.04 |
| TTTCGTTTGT | 1.12 |
| TAATGGTAAG | 0.994 |
| AACTAGATGA | 1.06 |
| CAAGGTAAGC | 1.02 |

| Sequence | switch fluorescence ratio |
| --- | --- |
| TTTTTGCCG | 1.06 |
| TGTTAAAAGC | 0.991 |
| GAACCATGAC | 1.3 |
| TTTCGCAGCC | 1.37 |
| TGTAGTGATG | 0.949 |
| TACTCACATT | 1.27 |
| ACGCAGCTTC | 2.74 |
| TTAACATG | 1.02 |
| AGACATA | 0.986 |
| TGCTAGCAAT | 1.04 |
| CCATGCATGT | 0.947 |
| CTTATTACTA | 1.02 |
| GCTAGACCGC | 1.07 |
| TAGAGGGAAC | 0.928 |
| GTCTGTGTTG | 0.964 |
| AAACAGCA | 1.04 |
| TCAGGGAAAC | 1.98 |
| TTGGGTGTTC | 0.959 |
| CATAAGTGTG | 1.02 |
| TTGACCACGT | 0.987 |

Reference: the supplement of paper PMC10126150
